Experimental data from PubChem BioAssay AID485344 (National Center for Advancing Translational Sciences (NCATS), 2010).
The campaign covered roughly 340,000 compounds. About 6,900 (2%) were called active. No stated cut-off is given here; in the data, active means inhibition above about 30%; inactive means below that, where a call was filed. The entries are a selection whose mix differs from that of the whole data set. Where no call is shown, the source filed none.

Biological target: D(2) dopamine receptor (Homo sapiens) (UniProt P14416)
Experiment: HTS Assay for Allosteric Antagonists of the Human D2 Dopamine Receptor: Primary Screen for Antagonists; further: 0% is about no effect
Conditions: HEK293 TREx D2 cells, calcium flux, dopamine EC80; at 10 µM; stronger effect = higher value
How it was run: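 Calcium flux kinetic readout in an inducible HEK293 TREx D2 line plated overnight at 30 C. After 180 s compound exposure, an EC80 dopamine challenge follows with another 180 s kinetic read to detect antagonism.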

Chain of UniProt P14416 (P14416 whole entry, looked up): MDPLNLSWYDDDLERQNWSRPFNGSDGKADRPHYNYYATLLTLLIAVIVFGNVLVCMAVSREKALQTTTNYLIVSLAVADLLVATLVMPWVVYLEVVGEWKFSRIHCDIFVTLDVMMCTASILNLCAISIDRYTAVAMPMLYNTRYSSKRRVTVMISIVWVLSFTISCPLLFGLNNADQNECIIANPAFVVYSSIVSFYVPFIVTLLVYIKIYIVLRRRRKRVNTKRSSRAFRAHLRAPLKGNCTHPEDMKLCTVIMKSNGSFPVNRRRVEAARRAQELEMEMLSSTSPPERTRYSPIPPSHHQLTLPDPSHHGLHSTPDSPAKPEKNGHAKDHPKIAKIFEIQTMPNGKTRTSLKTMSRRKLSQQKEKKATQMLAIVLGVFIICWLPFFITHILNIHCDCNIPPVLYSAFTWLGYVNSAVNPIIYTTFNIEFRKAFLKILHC

Structure (SMILES) | inhibition
CSc1cccc(NC(=O)CN2C(=O)COc3ccc(Cl)cc32)c1 | 3.35%
CCOc1ccc(OCC)c(NC(=O)c2nnn(CC(=O)Nc3ccc(C)cc3C)c2N)c1 | 6.41%
Cc1cc2n(n1)C(c1cc(C(C)(C)C)c(O)cc1O)Nc1ccccc1-2 (stereo not given) | -9.07%
COc1ccc(-c2cc3ccc(O)c(CN4CCOCC4)c3oc2=O)cc1OC | -2.77%
Cc1ccc(-c2nc3sc(CCNC(=O)c4ccc(Br)o4)c(C)n3n2)cc1 | 21%
COc1ccccc1CNC(=O)C(NS(=O)(=O)c1cccs1)C(C)C (stereo not given) | 0.78%
COc1ccc(NC(=O)COc2ccc(-c3nn(C)c(=O)c4ccccc34)cc2)cc1 | -6%
CCCCOc1ccc(C(=O)Nc2cccc(-c3nc4cccnc4s3)c2)cc1 | 6.49%
COc1ccccc1-c1nnc(SCC(=O)c2ccc(Cl)cc2)n1-c1ccccc1 | -7.48%
CCCCc1ccc(NC(=O)c2cc3c(=O)n4ccccc4nc3s2)cc1 | -7.35%
CC(NC(=O)c1ccc2c(c1)CCN2S(=O)(=O)c1ccc(Cl)cc1)c1ccccc1 (stereo not given) | -1.22%
CCOc1ccc(NC(=O)CSc2nc3c(oc4ccccc43)c(=O)n2-c2ccccc2C)cc1 | 9.78%
COc1ccc(NC(c2ccccc2)c2ccncc2)cc1 (stereo not given) | active: 40.7%
CC(C)(C)OC(=O)N1CCC(c2c(C(=O)N3CCC(c4ccccc4)C3)cnn2-c2cccc(Cl)c2)CC1 (stereo not given) | -8.64%
CCCCCS(=O)(=O)c1oc(-c2cccs2)nc1S(=O)(=O)c1ccc(C)cc1 | -8.12%
CCCCN(CCCC)C(=O)c1cc2c(=O)n3cccc(C)c3nc2s1 | 14.2%
COc1ccc(C2CC(=O)N(CC(=O)Nc3cc(C)ccc3C)c3ccccc3S2)cc1 (stereo not given) | -0.409%
Cc1cccc(OCC(=O)N(Cc2cccs2)c2ccc(Cl)cc2)c1C | 11.9%
COC(=O)c1c(-c2cccs2)csc1NC(=O)COc1ccc(C(C)(C)C)cc1 | 2.51%
CCOc1ccccc1NC(=O)c1nn(-c2ccc(C)cc2)c(=O)n(C)c1=O | 16.5%
CCOc1ccccc1C1C(C(=O)N2CCCCC2)=C(C)Nc2nc3ccccc3n21 (stereo not given) | -13.8%
COc1ccccc1CNc1ccc(-c2nc(-c3cccnc3)no2)cc1[N+](=O)[O-] | -2.18%
Cc1ccc(C(=O)Nc2ccc(-c3cn4cccnc4n3)cc2)cc1C | -10.2%
COc1cccc(NC(=S)N(CCCN2CCCC(C)C2)Cc2cccs2)c1 (stereo not given) | active: 59.1%

Structure (SMILES) | inhibition
COc1cc(C(C(=O)NC2CCCC2)N(C(=O)c2snc(C(N)=O)c2N)C2CCCC2)cc(OC)c1OC (stereo not given) | active: 31.6%
COc1ccc(N(C)C(=O)CCn2cnc3onc(-c4ccc(F)cc4)c3c2=O)c(OC)c1 | -8.14%
COc1cccc(NC(=O)CN2C(=O)c3cccnc3Oc3ccc(Cl)cc32)c1 | 10.9%
O=C(NCC1CCN(Cc2cccc(Cl)c2)CC1)Nc1cc(Cl)ccc1Cl | 1.71%
Cc1cc(C)c(NC(=O)Cc2csc(C)n2)c(Cl)c1 | 17.4%
CCN1C(=O)c2ccccc2Sc2ccc(C(=O)NCCCN(CC(C)C)CC(C)C)cc21 | active: 42.3%
COc1ccc(COCC(O)CN(Cc2ccccc2)C(C)C)cc1OC (stereo not given) | active: 31.1%
O=C1c2oc3ccccc3c(=O)c2C(c2ccccc2)N1Cc1ccc2c(c1)OCO2 (stereo not given) | 1.77%
CN1C(=O)c2ccccc2Sc2ccc(NC(=O)c3ccccc3F)cc21 | -6.77%
Cc1c(-c2nsc(NC(=O)c3ccccc3)n2)nnn1-c1ccc(C(F)(F)F)c(Cl)c1 | -3.88%
CCOC(=O)c1cccc(NC(=O)[C@@H](c2ccccc2)N2Cc3ccccc3C2=O)c1 | -3.37%
COc1ccc(C2CC(=O)Nc3c2c(C)nn3-c2nncc(-c3ccc(C)cc3)n2)c(OC)c1OC (stereo not given) | -4.41%
Cc1csc2nc(-c3cccc(NC(=O)C(C)C)c3)cn12 | -1.63%
CCc1ccccc1NC(=O)c1ccc2c(c1)N(Cc1cccc(Cl)c1)C(=O)c1ccccc1S2(=O)=O | -0.184%
CCOc1ccc(-c2nc(SCC(=O)Nc3ccc4c(c3)OCO4)c(-c3ccc(F)cc3)[nH]2)cc1 | 3.1%
Cc1nc2cccnc2n1-c1cccc(C(=O)N2CCN(c3ccc(Cl)cc3)CC2)c1 | -3.2%
CCC(=O)N1c2ccccc2CC1C(=O)NCc1ccc(OC(C)C)cc1 (stereo not given) | -8.11%
CCN(CCCNC(=O)Cn1ncc2c([nH]c3ccc(C)cc32)c1=O)c1cccc(C)c1 | -1.57%
O=C(NCCc1ccccc1)c1ccc(CS(=O)(=O)c2ccc(Br)cc2)o1 | 19.2%
Cc1cc2nn(-c3ccccc3)nc2cc1NC(=O)c1cccc2c(Cl)cccc12 | 1.31%
COc1ccc(-n2ccnc2SCC(=O)Nc2ccc(F)cc2F)cc1 | 19.9%
COc1ccc(CCC(=O)N2CCc3c([nH]c4ccccc34)C2c2ccc(F)cc2)cc1 (stereo not given) | 8.83%
CCSc1nnc2n(-c3cccc(C)c3)c(=O)c3c4c(sc3n12)CCCC4 | 12.2%
COc1ccc(-c2cc(C(=O)Nc3cccnc3Cl)no2)cc1OC | 14.8%

Structure (SMILES) | inhibition
CCOc1ccccc1N1CCN(Cc2cc3c(cc2[N+](=O)[O-])OCO3)CC1 | active: 59.6%
Cc1ccc2onc(CNC(=O)N3CCN(c4cccc(C)c4C)CC3)c2c1 | -7.15%
Cc1ccc(C)c(CN2C(=O)C(=O)c3ccccc32)c1 | 17.7%
COc1cc(NC(=O)c2ccc(C)cc2)ccc1NC(=O)c1cc2ccccc2o1 | -0.639%
O=C1CSC2(C(=O)N(Cc3ccccc3F)c3ccccc32)N1c1ccc(F)cc1 (stereo not given) | -2.36%
COc1ccc(N2CCN(S(=O)(=O)CCNC(=O)C(c3ccccc3)c3ccccc3)CC2)cc1 | -6.31%
CS(=O)(=O)N(CC(=O)N1CCCC1)Cc1ccccc1 | active: 47.1%
CCOC(=O)c1ccc(Nc2nc3ccccc3nc2NS(=O)(=O)c2ccc(Cl)cc2)cc1 | 5.66%
CCN1CCN(CCCNC(=O)c2cnn(-c3ccccc3)c2C2CCN(C(=O)OC(C)(C)C)CC2)CC1 | 14.8%
COc1cccc(C2C=C(c3ccc(C)c(C)c3)Nc3nnnn32)c1OC (stereo not given) | 0.618%
Cc1ccc(-c2c(CN3CCN(c4cccc(C(F)(F)F)c4)CC3)csc2C)cc1 | 24.5%
O=C(NCCc1csc2nc(-c3ccccc3F)nn12)c1ccco1 | -11.8%
O=C(NC(=O)c1ccc(F)cc1)Nc1ccc(-c2cc(C(F)(F)F)nn2-c2ccccc2)cc1 | -25.7%
CN1C(C(=O)c2ccccc2)=C(OC(=O)c2ccc(Br)cc2)c2ccccc2S1(=O)=O | -10.3%
Cc1oc2c(c(C)cc3oc(=O)c(CC(=O)NCCc4ccccc4)c(C)c32)c1C | 10.3%
COc1ccc(NC(=O)c2cc3c(=O)n(Cc4ccco4)ccc3nc2C)cc1 | -3.33%
Cc1ccc(NC(=O)Nc2ccc3c(c2)N(C)C(=O)c2ccccc2S3)c(C)c1 | -2.5%
CCOC(=O)c1c(C)[nH]c(C)c1S(=O)(=O)NCC(=O)Nc1cc(C)ccc1OC | -7.22%
COc1ccccc1NC(=O)c1c(NCc2ccc(OC)c(OC)c2OC)sc2c1CCCC2 | -1.6%
COc1cccc(NC(=O)Nc2cccc(-c3cn4cccnc4n3)c2)c1 | -2.27%
CC1CCC2(CC1)NC(=O)N(CC(=O)Nc1sc3c(c1C(N)=O)CCC3)C2=O (stereo not given) | active: 38.5%
O=C(NCCc1ccccc1)c1cc(-c2ccc(Cl)cc2)on1 | -6.46%
COc1ccc(NC(=O)c2noc3c2CCCC3)cc1Cl | 13.6%
CCOc1ccc(-c2nnc(Nc3ccc(S(N)(=O)=O)cc3)c3ccccc23)cc1 | -11.8%

Structure (SMILES) | inhibition
CC(C)(C)c1ccc(OCC(=O)N2CCC(c3nc4ccccc4s3)CC2)cc1 | -6.5%
Cc1cc(C)c(NC(=O)CSc2nc(=O)[nH]c3c2CCCC3)c(C)c1 | 21.1%
CCCOC1(C(F)(F)F)NC(=O)N(c2ccc(Cl)cc2)C1=O (stereo not given) | 21%
Cc1nc2c(C(=O)NCc3ccccc3)c[nH]n2c(=O)c1Cc1ccccc1Cl | -25.3%
Cc1sc2ncn(CC(=O)N(C)c3ccc(Br)cc3)c(=O)c2c1S(=O)(=O)N1CCC(C)CC1 | 2.76%
COc1ccc(N(CC(=O)N/N=C/c2cccc3c2OCCO3)S(=O)(=O)c2ccc(NC(C)=O)cc2)cc1 | active: 44.5%
Cc1cccc2cc(C#N)c(SCC(=O)N3CC(=O)Nc4ccccc43)nc12 | active: 33.6%
Cc1cccc(NC(=O)c2c(C)oc3ncn(CC(C)C)c(=O)c23)n1 | 3.11%
CC(=O)N1CCc2cc(S(=O)(=O)CCC(=O)N3CCN(c4cccc(C)c4C)CC3)ccc21 | 7.12%
Cc1ccc(-n2ncc(C(=O)NCc3ccco3)c2C2CCN(C(=O)OC(C)(C)C)CC2)c(C)c1 | -8.17%
CC(=O)c1ccc(N2C(=O)N(CC(=O)c3ccc(F)cc3)c3ccccc3S2(=O)=O)cc1 | 4.81%
Cc1ccc(-n2ncc3c(NC4CCCCCC4)ncnc32)cc1Cl | 7.42%
CCCCN(CCCNC(=O)c1cc(Nc2ccc(OC)c(OC)c2)nc2ccccc12)Cc1ccccc1 | -1.48%
COc1ccc(S(=O)(=O)NCCc2csc(-c3ccc(F)cc3)n2)cc1F | -15.1%
CCOC(=O)C1=C(C)N=C2SCCC(=O)N2C1c1ccc(OCc2ccccc2)cc1 (stereo not given) | -1.54%
COC(=O)c1c(NC(=O)CCCOc2cccc(C)c2)sc2c1C(C(=O)OC)CC2 (stereo not given) | -5.58%
Cn1c(CN2CCCC2)c(C#N)c2ccccc21 | active: 82.8%
CCN(CC)C(=O)Cn1c(=O)n(Cc2ccc(C(=O)NCCc3ccc(OC)c(OC)c3)cc2)c(=O)c2ccccc21 | -11%
CCc1ccc(CN(Cc2cn[nH]c2-c2ccc(OC)cc2)C(=O)Nc2cc(Cl)ccc2OC)cc1 | 0.155%
CCOC(=O)c1c(NC(=O)c2ccc(S(=O)(=O)N(CC(C)C)CC(C)C)cc2)sc2c1CCN(C(=O)OCC)C2 | -7.42%
CCC(=O)N(CCC(c1ccccc1)c1ccc2c(c1)OCO2)Cc1ccc(OC(C)C)cc1 (stereo not given) | 6.34%
COc1ccc(NC(=O)CSc2nnc(-c3nonc3NC(C)=O)n2-c2ccccc2)cc1 | 4.27%
COc1ccc(Cl)cc1NC(=O)c1sc2nc3n(c(=O)c2c1C)CCC3 | 13.1%
